{"source": "paper PMC4242493", "note": "This is one part of the list. The list includes weakly bound sequences."}
{"molecular_target": "MaxL homodimer (UniProt P61244)", "sequence (P61244 whole entry)": "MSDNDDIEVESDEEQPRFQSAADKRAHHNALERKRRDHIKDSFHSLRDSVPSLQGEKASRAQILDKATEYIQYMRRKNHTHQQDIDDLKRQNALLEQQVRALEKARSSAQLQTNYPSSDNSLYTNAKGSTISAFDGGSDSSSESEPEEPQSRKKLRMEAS", "assay": "universal protein-binding microarray (PBM)", "settings": "PBS-based mixture, 10 nM His-tagged protein dimer, 2% milk, 200 ng/uL BSA, 50 ng/uL salmon testes DNA, 0.02% TX-100; detection with Alexa 488 anti-His …; high values mean tight binding; most listed sequences are background and not binding sites; double strand, one strand shown"}
{"sequence": "TCCCCGAA", "binding signal (normalized occupancy)": 0.0707}
{"sequence": "GGGCAGAC", "binding signal (normalized occupancy)": 0.0732}
{"sequence": "ACCGAGGG", "binding signal (normalized occupancy)": 0.0715}
{"sequence": "AGCGACCC", "binding signal (normalized occupancy)": 0.0713}
{"sequence": "CACTCCGA", "binding signal (normalized occupancy)": 0.0727}
{"sequence": "CATTGTCG", "binding signal (normalized occupancy)": 0.0803}
{"sequence": "AGGCACCC", "binding signal (normalized occupancy)": 0.0745}
{"sequence": "GAGCTGCC", "binding signal (normalized occupancy)": 0.0712}
{"sequence": "CCCCGCTC", "binding signal (normalized occupancy)": 0.0723}
{"sequence": "TCTACGAA", "binding signal (normalized occupancy)": 0.0762}
{"sequence": "GATCCCAA", "binding signal (normalized occupancy)": 0.0778}
{"sequence": "CCAATCGA", "binding signal (normalized occupancy)": 0.0761}
{"sequence": "ACACTCCG", "binding signal (normalized occupancy)": 0.0756}
{"sequence": "ACATCGGC", "binding signal (normalized occupancy)": 0.068}
{"sequence": "ACACATGC", "binding signal (normalized occupancy)": 0.137}
{"sequence": "CATGGCCG", "binding signal (normalized occupancy)": 0.085}
{"sequence": "CCGGTCAG", "binding signal (normalized occupancy)": 0.0671}
{"sequence": "GATTTAGC", "binding signal (normalized occupancy)": 0.0713}
{"sequence": "AATGTGTC", "binding signal (normalized occupancy)": 0.095}
{"sequence": "CATTTATA", "binding signal (normalized occupancy)": 0.0837}
{"sequence": "ATATAGTC", "binding signal (normalized occupancy)": 0.084}
{"sequence": "AATTAAGC", "binding signal (normalized occupancy)": 0.0756}
{"sequence": "CATTTACC", "binding signal (normalized occupancy)": 0.0792}
{"sequence": "GTTGGCAA", "binding signal (normalized occupancy)": 0.075}
{"sequence": "AGAGGTAA", "binding signal (normalized occupancy)": 0.0724}
{"sequence": "CCCTTTCA", "binding signal (normalized occupancy)": 0.0772}
{"sequence": "CCACCGTC", "binding signal (normalized occupancy)": 0.0749}
{"sequence": "CATCGTCC", "binding signal (normalized occupancy)": 0.0759}
{"sequence": "TGAGGAAA", "binding signal (normalized occupancy)": 0.0759}
{"sequence": "AGGGAATG", "binding signal (normalized occupancy)": 0.0778}
{"sequence": "ATGGAGCG", "binding signal (normalized occupancy)": 0.0803}
{"sequence": "ACGTTAAA", "binding signal (normalized occupancy)": 0.0795}
{"sequence": "GAATAAGA", "binding signal (normalized occupancy)": 0.0794}
{"sequence": "ATAAATGC", "binding signal (normalized occupancy)": 0.0834}
{"sequence": "ACATATAA", "binding signal (normalized occupancy)": 0.0827}
{"sequence": "GATCTTAC", "binding signal (normalized occupancy)": 0.078}
{"sequence": "CACGAGCA", "binding signal (normalized occupancy)": 0.0904}
{"sequence": "CCCTCCCC", "binding signal (normalized occupancy)": 0.0813}
{"sequence": "CCCAGGCC", "binding signal (normalized occupancy)": 0.0716}
{"sequence": "ACAAAGTA", "binding signal (normalized occupancy)": 0.074}
{"sequence": "GACTCTCA", "binding signal (normalized occupancy)": 0.0765}
{"sequence": "TCTATAAA", "binding signal (normalized occupancy)": 0.0807}
{"sequence": "AGACCTAG", "binding signal (normalized occupancy)": 0.0713}
{"sequence": "GCAATGCA", "binding signal (normalized occupancy)": 0.0792}
{"sequence": "CTCGCGCA", "binding signal (normalized occupancy)": 0.0761}
{"sequence": "ATGTGATG", "binding signal (normalized occupancy)": 0.0968}
{"sequence": "CCGTACCG", "binding signal (normalized occupancy)": 0.0712}
{"sequence": "GCTGGTGA", "binding signal (normalized occupancy)": 0.0746}
{"sequence": "ACGACTCG", "binding signal (normalized occupancy)": 0.0696}
{"sequence": "AAGCCTCT", "binding signal (normalized occupancy)": 0.0759}
{"sequence": "AAACGGCT", "binding signal (normalized occupancy)": 0.0646}
{"sequence": "AGCAGTAT", "binding signal (normalized occupancy)": 0.0755}
{"sequence": "AAGGAGAC", "binding signal (normalized occupancy)": 0.0783}
{"sequence": "GCCGGTAA", "binding signal (normalized occupancy)": 0.072}
{"sequence": "CTCGAACC", "binding signal (normalized occupancy)": 0.0717}
{"sequence": "CGCTTTCA", "binding signal (normalized occupancy)": 0.076}
{"sequence": "GCGGCTCC", "binding signal (normalized occupancy)": 0.0693}
{"sequence": "CAGCATAC", "binding signal (normalized occupancy)": 0.0829}
{"sequence": "GCCTAGGC", "binding signal (normalized occupancy)": 0.0685}
{"sequence": "GCGTCACC", "binding signal (normalized occupancy)": 0.0737}
{"sequence": "AGAGGAGA", "binding signal (normalized occupancy)": 0.0731}
{"sequence": "ACACGTAA", "binding signal (normalized occupancy)": 0.082}
{"sequence": "CTATAATC", "binding signal (normalized occupancy)": 0.0798}
{"sequence": "GTTGGCGA", "binding signal (normalized occupancy)": 0.0684}
{"sequence": "ATCCACGG", "binding signal (normalized occupancy)": 0.0796}
{"sequence": "CAGATAGG", "binding signal (normalized occupancy)": 0.0755}
{"sequence": "AGTATCTG", "binding signal (normalized occupancy)": 0.0718}
{"sequence": "GTACGAAC", "binding signal (normalized occupancy)": 0.0712}
{"sequence": "CTAATCAA", "binding signal (normalized occupancy)": 0.0703}
{"sequence": "CTGAGTTA", "binding signal (normalized occupancy)": 0.075}
{"sequence": "ATCCAGTA", "binding signal (normalized occupancy)": 0.0781}
{"sequence": "CGATACAA", "binding signal (normalized occupancy)": 0.0766}
{"sequence": "ACTCAAAC", "binding signal (normalized occupancy)": 0.0711}
{"sequence": "GGTGGTAA", "binding signal (normalized occupancy)": 0.0793}
{"sequence": "CATCGTAA", "binding signal (normalized occupancy)": 0.072}
{"sequence": "ATGATCAT", "binding signal (normalized occupancy)": 0.0825}
{"sequence": "CATTCCGG", "binding signal (normalized occupancy)": 0.0746}
{"sequence": "GTTTTCGA", "binding signal (normalized occupancy)": 0.0726}
{"sequence": "CCCTCGCC", "binding signal (normalized occupancy)": 0.0752}
{"sequence": "ATTTGGGG", "binding signal (normalized occupancy)": 0.0826}
{"sequence": "AGTCCAGC", "binding signal (normalized occupancy)": 0.0715}
{"sequence": "GTTAACCA", "binding signal (normalized occupancy)": 0.0793}
{"sequence": "CATAGCAA", "binding signal (normalized occupancy)": 0.0774}
{"sequence": "CTACCGCA", "binding signal (normalized occupancy)": 0.0796}
{"sequence": "AGCTTTAG", "binding signal (normalized occupancy)": 0.0725}
{"sequence": "GCCCGGCA", "binding signal (normalized occupancy)": 0.0681}
